Test results taken from patent publication US10357455B2, “Pharmaceutical compositions of amorphous dispersions of drugs and lipophilic microphase-forming materials” (Bend Research, Inc., priority 2002, dated 2019).

Assay: Partition coefficient of Drug 1 in lipophilic microphase-forming materials (NMR, PBS)
Details: for Highly-Mobile Drug 1 Concentration: deuterated PBS, overnight 37° C.

## CCOC(=O)N1c2ccc(C(F)(F)F)cc2[C@@H](N(Cc2cc(C(F)(F)F)cc(C(F)(F)F)c2)C(=O)OC)C[C@H]1CC [Drug 1, [2R,4S] 4-[(3,5-bis-trifluoromethyl-benzyl)-methoxycarbonyl-amino]-2-ethyl-6-trifluoromethyl-3,4-dihydro-2H-quinoline-1-carboxylic acid ethyl ester]
Crystalline Drug 1, Cremophore/Capmul 0.047 wt %
  Highly-Mobile Drug 1 Concentration: 9 µg/mL
Crystalline Drug 1, Cremophore/Capmul 0.089 wt %
  Highly-Mobile Drug 1 Concentration: 23 µg/mL
Crystalline Drug 1, Cremophore/Capmul 0.164 wt %
  Highly-Mobile Drug 1 Concentration: 53 µg/mL
Free drug concentration of crystalline Drug 1
  [Drug]free: 0.010 µg/mL
